From PubChem BioAssay AID485281 (National Center for Advancing Translational Sciences (NCATS), 2010)
Screen size: about 350,000 compounds; about 260 (0.074%) were called active. This list was built around the results that the source calls inconclusive (neither active nor inactive); the mix of calls is not that of the screen. Calls come from the whole dose curve; as a rule, active = well fitted inhibition curve with a large enough effect; inconclusive = small, poorly fitted or top-dose-only effect; inactive = no such curve, though single readings can be large or run the other way. Where the call is inconclusive, the potency comes from a doubtful curve fit.

Molecular target: Ferritin light chain (Equus caballus) (UniProt P02791)
Test: qHTS Assay for Identification of Novel General Anesthetics; note: nearly all actives have a fitted effect of over 20% in size
Details: apoferritin/1-aminoanthracene competitive binding, fluorescence; activity change, negative = displacement: at 77.5 µM (top of the series)
Procedure, shortened: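 Read-out: endpoint 1-AMA fluorescence, excitation 380 nm and emission 535 nm, after compounds sit 10 min at room temperature with 10 uM horse-spleen apoferritin in 50% saturated 1-AMA/PBS. Values come from four-parameter Hill fits.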
% is set by controls: 0 for no effect and ±100 for the full control effect; potency is the fitted concentration of half-maximal effect; tags give direction and shape of the fitted curve.

UniProt P02791, sequence (P02791 whole entry, looked up): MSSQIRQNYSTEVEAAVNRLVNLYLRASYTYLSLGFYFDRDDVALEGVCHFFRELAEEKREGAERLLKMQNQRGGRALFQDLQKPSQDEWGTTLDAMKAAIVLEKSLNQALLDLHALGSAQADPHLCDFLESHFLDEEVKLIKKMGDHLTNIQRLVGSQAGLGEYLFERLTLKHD

Potency, inconclusive:
Cc1cc(C)cc(NS(=O)(=O)c2cccs2)c1 25.1 µM [inhibitor, partial curve], CC(c1ccon1)N(C)C(=O)CCc1nnc(CCCCc2ccccc2)o1 (centres undefined) 28.2 µM [inhibitor, partial curve], Nc1nc(-c2ccccc2)cs1 14.1 µM [inhibitor, partial curve, poor fit], Clc1ncccc1-c1nnn(-c2ccccc2Br)n1 35.5 µM [inhibitor, partial curve], CCC(C)c1ccc(NC(=O)C/C(C)=N/NC(=O)c2cnccn2)cc1 (centres undefined) 50.1 µM [inhibitor, single point], COc1ccc(-c2noc(-c3ccc(N4CCCC4)c([N+](=O)[O-])c3)n2)cc1 35.5 µM [inhibitor, partial curve], CCOc1ccc(C(C)=O)cc1COC(=O)c1cccnc1SC 39.8 µM [inhibitor, partial curve], COc1ccc(Cl)cc1NS(=O)(=O)c1ccc(S(=O)(=O)N2CCCC2)cc1 35.5 µM [inhibitor, partial curve], Cc1ccc(NC(=O)CCn2nc(C)c(S(=O)(=O)N3CCCCC3)c2C)cc1Cl 3.98 µM [inhibitor, partial curve], COc1ccccc1N1CCN(C(=O)c2ccccc2Oc2ccccc2)CC1 25.1 µM [inhibitor, partial curve, poor fit], Cc1ccc(NS(=O)(=O)c2ccc(C(=O)N3CCN(c4ccccn4)CC3)cc2)cc1 31.6 µM [inhibitor, partial curve], CC(Sc1nc(-c2ccccc2)cc(C(F)(F)F)n1)C(=O)Nc1sc2c(c1C#N)CCC2 (centres undefined) 8.91 µM [inhibitor, full curve, poor fit], COC(=O)C1(C)CC1(c1ccccc1)c1ccccc1 (centres undefined) 17.8 µM [inhibitor, partial curve], Cc1cccc(Nc2nnc(SC/C(O)=C(\C#N)c3nc4ccccc4[nH]3)s2)c1 31.6 µM [inhibitor, single point], Cc1ccc(C)c(Oc2cc(NC(=O)CCCn3nc(C)c([N+](=O)[O-])c3C)cc([N+](=O)[O-])c2)c1 6.31 µM [inhibitor, full curve, poor fit], Cc1ccc(N(C)S(=O)(=O)c2ccc3[nH]c4c(c3c2)CCCC4)cc1 3.16 µM [inhibitor, partial curve], O=C(Nc1ccccc1)N(Cc1ccc2c(c1)OCO2)Cc1nc2ccccc2c(=O)[nH]1 10 µM [inhibitor, full curve], Cn1nnnc1SCCNCc1ccc(OCc2ccccc2Cl)cc1 6.31 µM [inhibitor, single point], COC(=O)c1cccc(Cn2nnc3sc4c(c3c2=O)CCC(C(C)(C)C)C4)c1 (centres undefined) 11.2 µM [inhibitor, full curve, poor fit], CCCCNc1c([N+](=O)[O-])cc(C)cc1[N+](=O)[O-] 10 µM [inhibitor, partial curve], CCOC(=O)c1c(C)[nH]c(C)c1C(=O)COc1ncnc2cc([N+](=O)[O-])ccc12 20 µM [inhibitor, partial curve], Cc1nn(Cc2c(F)cccc2Cl)c(C)c1[N+](=O)[O-] 35.5 µM [inhibitor, partial curve], CN1N=C(c2ccc(F)c(F)c2)CSC1=NCc1ccccc1 31.6 µM [inhibitor, partial curve], COc1ccc(N2C(=O)C(Cl)=C(N3CCCC3)C2=O)cc1 35.5 µM [inhibitor, partial curve], CCOC(=O)c1ccc(NC(=O)c2cccc3c2C(=O)N(CC2CCCO2)C3)cc1 (centres undefined) 22.4 µM [inhibitor, partial curve], O=C(c1ccccc1Cl)N(Cc1ccco1)Cc1ccco1 35.5 µM [inhibitor, partial curve], CN(Cc1ccccc1)c1ccc(-c2nc(-c3ccco3)no2)cc1[N+](=O)[O-] 25.1 µM [inhibitor, partial curve], CC(=O)c1cccc(NC(=O)c2c(-c3ccccc3)c(-c3ccccc3)nn(C)c2=O)c1 28.2 µM [inhibitor, partial curve], O=C(NCc1n[nH]c(=S)n1-c1cccc(Cl)c1)c1ccc(S(=O)(=O)N2CCCC2)cc1 56.2 µM [inhibitor, single point], Cc1ccc(CCNC(=O)c2nnc(CS(=O)(=O)c3ccccc3)o2)cc1 5.62 µM [inhibitor, partial curve]

Potency, inactive:
O=C(Cc1cc(=O)[nH][nH]1)N/N=C/c1c(Cl)cccc1Cl

Activity change, negative = displacement, inactive:
Cc1nc2scc(-c3ccccc3)c2c(=O)n1N -19.6%, Cc1cccc(C(=O)O/N=C(\N)c2ccccn2)c1 6.5%, CCCCCCCCCCC(C)=O 4.59%, Cc1ccc2c(c1)N(C)/C(=C/c1cccc[n+]1CCO)S2 -9.02%, COc1ccc(-c2cc(C(F)(F)F)n3nc(C(=O)NCCCn4ccnc4)cc3n2)cc1 80.2%, Brc1ccc(C=Nc2ccc(Nc3ccccc3)cc2)s1 -17%, O=S(=O)(Nc1nc2ccccc2nc1Cl)c1ccc(F)cc1 -6.88%, O=C(CCN1C(=O)/C(=C/c2ccccc2Cl)SC1=S)N1CCOCC1 -9.61%, CSC(=NNC(=O)c1ccc(O)cc1)SC -12.8%, O=C(COc1ccccc1)Nc1ccc2[nH]ncc2c1 -17.5%, COc1ccc(/C=N/NC(=O)c2ccc(F)cc2)cc1CN1CCc2cc(OC)c(OC)cc2C1C (centres undefined) -4.25%, CC(C)S(=O)(=O)c1oc(-c2ccc(F)cc2)nc1S(=O)(=O)c1ccccc1 -16.8%, Cc1ccc(Nc2ccc([N+](=O)[O-])nc2[N+](=O)[O-])cc1 0.994%
